In PubChem BioAssay AID488969 (Vanderbilt High Throughput Screening Facility, 2010):
The full ranking holds about 110,000 compounds; the median of “z-score” is about -0.1, and the highest 2% start at about 2. The list shows a part of the results. Active and inactive are the calls of the source.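 Rule for the calls: active = z-score in the third read window above 3 or below -3; inactive = the rest.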

biological target: Metabotropic glutamate receptor 8 (Rattus norvegicus) (UniProt P70579); test: rat mGluR8 modulators via GIRK flux, primary screen, cell-based, thallium flux, HTS (AID 488969); settings: HEK293 rat mGluR8, GIRK (G protein-gated inwardly rectifying potassium channel) thallium flux, FluoZin2; at 10 µM; stronger effect = higher value; submaximal glutamate (EC20) added with thallium
Sequence of UniProt P70579 (P70579 whole entry, looked up): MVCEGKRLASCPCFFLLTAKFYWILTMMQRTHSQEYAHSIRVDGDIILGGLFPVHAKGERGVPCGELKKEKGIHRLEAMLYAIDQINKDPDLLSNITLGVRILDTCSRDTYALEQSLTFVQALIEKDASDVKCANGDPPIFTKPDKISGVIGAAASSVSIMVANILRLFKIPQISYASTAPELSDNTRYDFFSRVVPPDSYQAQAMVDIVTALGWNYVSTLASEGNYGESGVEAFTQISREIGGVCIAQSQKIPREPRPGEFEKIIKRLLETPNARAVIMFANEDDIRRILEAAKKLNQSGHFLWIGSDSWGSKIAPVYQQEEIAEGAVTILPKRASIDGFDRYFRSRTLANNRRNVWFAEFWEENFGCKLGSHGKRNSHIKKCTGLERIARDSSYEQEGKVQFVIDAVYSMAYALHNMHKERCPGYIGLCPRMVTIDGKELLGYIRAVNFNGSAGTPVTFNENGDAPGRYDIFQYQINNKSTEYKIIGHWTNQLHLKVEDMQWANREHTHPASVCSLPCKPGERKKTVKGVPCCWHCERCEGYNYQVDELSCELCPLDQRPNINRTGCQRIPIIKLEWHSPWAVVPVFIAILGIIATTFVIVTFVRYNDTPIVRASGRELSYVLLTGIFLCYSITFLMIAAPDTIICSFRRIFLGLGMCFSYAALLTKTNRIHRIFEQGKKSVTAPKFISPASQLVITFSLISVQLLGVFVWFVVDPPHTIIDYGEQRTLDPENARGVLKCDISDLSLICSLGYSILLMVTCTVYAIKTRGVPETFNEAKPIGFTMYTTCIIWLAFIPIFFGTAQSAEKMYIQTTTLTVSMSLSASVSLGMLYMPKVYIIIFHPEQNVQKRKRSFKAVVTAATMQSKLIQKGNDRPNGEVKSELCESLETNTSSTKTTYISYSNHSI

Structure (SMILES) | z-score
NC(=O)c1ccc(C(F)(F)F)n(Cc2c(Cl)cccc2Cl)c1=O | -0.486
CC(C)C(c1nnnn1Cc1ccc2c(c1)OCO2)N1CCN(C)CC1 (centres undefined) | -0.14
COc1cccc(Cn2c(NCc3cccnc3)nc3c2c(=O)n(C)c(=O)n3C)c1 | -0.037
CCOC(=O)N1CCN(c2c(NCCCN3CCCCCC3)c(=O)c2=O)CC1 | -0.116
CCOC(=O)C(Sc1ncnc2c1sc1nc(N3CCOCC3)c3c(c12)CCCC3)c1ccccc1 (centres undefined) | -0.224
OCc1nc2ccccc2n1CCCOc1ccc(Br)cc1 | -0.539
O=S(=O)(c1ccccc1)N(Cc1nc(-c2ccccc2)no1)C1CCCCC1 | -0.141
Cc1cc(Cl)cc2c1NC(=O)[C@]21[C@@H]2C(=O)N(Cc3ccccc3)C(=O)[C@@H]2[C@@H]2CCCN21 | 0.492
COC(=O)c1cc(NC(=O)CSc2nncn2C)cc(C(=O)OC)c1 | -0.253
Cc1cc(C)c(S(=O)(=O)N2CCN(c3ccc([N+](=O)[O-])c(-n4nc(C)cc4C)c3)CC2)c(C)c1 | -0.485
O=C1Nc2ccc(Br)cc2C1(O)Cc1ccccn1 (centres undefined) | 0.145
CCCC(=O)Nc1nc2nc(C)cc(=O)n2[nH]1 | -0.33
O=C(COC(=O)/C=C/c1ccc2c(c1)OCO2)NC1CC1 | -0.171
Cc1ccc(S(=O)(=O)N2CCCC2CO)cc1 (centres undefined) | 0.351
CC12CCC(C(=O)Nc3ccc(SC(F)F)cc3)(CC1=O)C2(C)C (centres undefined) | 0.519
CCC1CCCCN1C(=O)CSc1nnc(-c2ccco2)o1 (centres undefined) | active: 11.1
CCCCn1c(Cc2ccccc2)nnc1SCC(=O)Nc1cc(C)on1 | -0.175
Nc1nc(=S)[nH]c2c1C1(CCCCC1)Cc1ccccc1-2 | 0.537
CNC(=S)N1CCc2ccccc2C1 | -0.276
COCC(=O)NC1CCN(C(=O)Nc2ccc(Br)cc2)CC1 | -0.036
Nc1cc(C(=O)O)ccc1Nc1ccc(F)c(F)c1 | 0.0314
CC(=O)N1CCN(c2nc(C)nc3sc4c(c23)CCC(C)C4)CC1 (centres undefined) | -0.559

Structure (SMILES) | z-score
COCCCn1c(SCC(=O)N2CC(=O)Nc3ccccc32)nnc1-c1ccoc1C | 1.19
O=c1[nH]c(/C(Cl)=C/c2c(F)cccc2Cl)nc2cc(Cl)ccc12 | 0.654
CCN(CC(=O)Nc1ccc([N+](=O)[O-])cc1OC)CC(=O)NC(C)(C)C | -0.246
CCN(CC)Cc1csc(C(N)=O)c1 | -0.124
CCOc1ccc(NC(=O)C2CCCCN2S(=O)(=O)c2ccccc2)cc1 (centres undefined) | -0.224
COc1ccc(O)c(C=Nc2cc(NC(C)=O)c(Cl)cc2Cl)c1 | -1.61
Cc1ccc(S(=O)(=O)NC2=NCN(CCN3CCOCC3)CN2)cc1 | 1.32
CCOC(=O)C1C(=O)Oc2ccc3ccccc3c2C1C1CCOC1=O (centres undefined) | -0.0876
CCOC(=O)c1nn(-c2c(C)n(C)n(-c3ccccc3)c2=O)cc1O | -0.788
O=C1Nc2ccccc2C(O)(C(=O)NCc2ccc3c(c2)OCO3)N1c1ccc(Cl)c(Cl)c1 (centres undefined) | -0.191
C/C(=N/NC(=O)c1ccc(C)s1)c1cccc(NC(=O)COc2ccc(Cl)cc2C)c1 | 0.0218
Cc1ccc(Oc2ncccc2/C=N/O)cc1 | 0.106
Cc1snc(S(=O)(=O)Cc2c(Cl)cccc2Cl)c1C#N | 0.0299
CC1CCN(CCCCOc2ccc([N+](=O)[O-])cc2)CC1 | 0.0148
CCN(CC)C(=O)c1sc(NC(=O)c2ccc(OC)c([N+](=O)[O-])c2)c(C#N)c1C | -0.297
CCOc1ccccc1OCC(O)CNC (centres undefined) | -0.205
O=c1ccnc(SCc2ccccc2Cl)[nH]1 | 0.253
CCOC(=O)CSC1=C(C#N)C(c2ccco2)C(C(=O)OCc2ccccc2)=C(C)N1 (centres undefined) | -0.792
O=S(=O)(Cc1ccccc1)N1CCc2ccccc2C1 | -0.226
COc1cccc(OC)c1C(=O)Nc1ccc(Cc2ccncc2)cc1 | -0.044
O=C(CSC(=S)N1CCN(c2ccccc2)CC1)Nc1nc(-c2ccccc2)c(-c2ccccc2)o1 | -0.0942
CCN(C(=O)COc1ccc(C)nc1[N+](=O)[O-])C1CCS(=O)(=O)C1 (centres undefined) | 0.0109

Structure (SMILES) | z-score
Cc1ccc2nc(C(C)O)[nH]c2c1 (centres undefined) | 0.609
CCOc1ccc2c(c1)nc(SCC(=O)c1cccs1)n2C | -0.425
O=C(Cn1c(=O)n(Cc2ccco2)c(=O)c2c3c(sc21)CCCC3)Nc1ccccc1 | -0.173
O=C(/C=C/c1ccccc1)N1CCN(c2cccc(Cl)n2)CC1 | -0.256
Cc1ccc(N(CC(O)CN2CCCC2)S(=O)(=O)c2ccc(C)cc2)cc1 (centres undefined) | 0.249
Cc1nn(C)c(C)c1S(=O)(=O)N1CCCC(C(=O)N2CCN(c3ccccc3)CC2)C1 (centres undefined) | -0.737
COc1ccc(OC)c(-n2nnnc2SCC(=O)NCCc2ccccc2)c1 | -0.173
COc1ccc(CCNC(=O)C(=O)N2CCCCC2)cc1OC | -0.382
COc1ccc(OC)c(C2=C[N+](=O)C(C)(C)C(C)(C)N2[O-])c1 | -0.0397
CCCCCn1c(=O)[nH]c2c(c1=O)CCC2 | -0.159
C=CCOc1ccc(C2C(C#N)=C(N)N(Nc3ccccc3)C3=C2C(=O)CCC3)cc1OC (centres undefined) | -0.102
CCOC(=O)c1sc(/N=C/Nc2nc(C)c(C(=O)OCC)s2)nc1C | 0.48
COc1cc(C2CC(C(F)(F)F)n3ncc(C(=O)O)c3N2)cc(OC)c1OC (centres undefined) | -0.0559
CC1(C)C(N(O)C(=O)Nc2ccc(Cl)cc2)N(c2ccc(Cl)cc2)C(=O)N1CC(=O)NN (centres undefined) | -0.12
Cc1cc2ncn(C3CC(=O)N(Cc4ccc(N5CCCC5=O)cc4)C3=O)c2cc1C (centres undefined) | 0.382
Cc1cc(C)n(-c2nc(-c3ccc(Cl)c(Cl)c3)cs2)n1 | -0.118
CCOC(=O)Cn1c(=O)c(-c2ccccc2NCc2ccccc2)nc2ccccc21 | -0.104
CC(=O)CCN1CCOCC1 | -0.498
C/C(=N\NC(=O)C(=O)Nc1ccc(C)cc1)c1ccncc1 | -0.299
CCOc1ccc2nc(NC(=O)C(CCSC)NS(=O)(=O)c3cccs3)sc2c1 (centres undefined) | -0.564
Cc1ncoc1C(=O)Nc1ccc(Oc2ccccc2)cc1 | 2.26
Cc1ccc(C(=O)/C=C2\NCCNC2=O)cc1 | 1.4

Structure (SMILES) | z-score
O=C(CSc1nnc(CNc2ccc(F)cc2)n1Cc1ccccc1)N1CCOCC1 | 0.339
O=C1NC(=O)c2cc(NC(=O)C3CCCCC3)ccc21 | -0.231
CN(c1ccccc1C(=O)NCc1ccco1)S(C)(=O)=O | 0.172
O=C(NCCCN1CCOCC1)C1CC(=O)N(C2CCCCC2)C1 (centres undefined) | 1.11
CCc1cccc(NC(=O)Cn2c(=O)oc3cc(S(=O)(=O)N4CCOCC4)ccc32)c1 | 0.177
O=C1C=C(O)CC(c2ccc(Cl)c(Cl)c2)C1 (centres undefined) | 0.382
CC(C)(C)OC(=O)[C@H]1[C@H](c2ccc([N+](=O)[O-])cc2)C2(C(=O)c3ccccc3C2=O)C2c3ccccc3C=NN21 (some centres undefined) | 0.333
O=C(Nc1ccc(N2CCN(C(=O)c3ccc(Cl)cc3)CC2)cc1)c1ccc2c(c1)OCCO2 | 0.185
O=C(CSc1nc2ccccc2s1)NCCOc1ccc(Cl)cc1 | -0.16
Cc1ccc(S(=O)(=O)Nc2ccc3c(c2)CCC3)cc1C | -0.272
CCn1cc(/C=N/NC(=O)c2ccc(C#N)cc2F)c2ccccc21 | -0.41
O=C(NCc1ccco1)C1CC(=O)N(c2ccc(F)cc2)C1 (centres undefined) | 0.992
O=C(CSc1nnnn1C1CCCC1)c1ccc2c(c1)OCCO2 | 0.831
c1ccc(OCCSc2nc3ccccc3[nH]2)cc1 | 2.69
Cc1ccccc1NC(=O)/C(=C\c1cccs1)NC(=O)c1ccco1 | 0.0471
Cc1cc(Nc2nc(Cl)c(Cl)cc2Cl)n(-c2ccccc2)n1 | -0.0716
O=C(CCn1c2c(c3ccccc31)CCCC2)NNC(=O)c1ccc([N+](=O)[O-])cc1 | 0.131
COc1ccc(C2C(C(=O)OCC(=O)NC(C)(C)C)CCC(=O)N2c2ccc(C)cc2)cc1OC (centres undefined) | -0.0992
COc1ccc(-c2nc(-c3ccc(Br)o3)no2)cc1 | -0.349
Nc1nc(SCC(=O)Nc2ccccc2)nc2nc3c(cc12)CCCC3 | -0.698
COc1ccc(OC(C)C(=O)N2CCc3ccccc3C2)cc1 (centres undefined) | -0.75
CCOC(=O)N1CCN(CC(O)c2ccc3cc[nH]c3c2)CC1 (centres undefined) | -0.345

Structure (SMILES) | z-score
CC(=O)Nn1cnc2c(c1=O)C1(CCCCC1)Cc1ccccc1-2 | -0.31
COc1cc(C2Nc3ccccc3C(=O)N2c2ccccc2)ccc1O (centres undefined) | -0.488
CC1CCN(C(=O)c2ccc(-n3cnnn3)cc2)CC1 | -0.0833
CC1CCN(S(=O)(=O)c2ccc(NC(=O)Cn3nnc(-c4ccccc4F)n3)cc2)CC1 | -0.0396
COc1ccc(Nc2nc(NCc3ccco3)nc(N/N=C/c3ccccc3)n2)cc1 | -0.241
Brc1ccc(OCc2nc(-c3ccccn3)n[nH]2)cc1 | -0.18
CCCCCCNC(=O)CC(NS(=O)(=O)c1ccc(NC(C)=O)cc1)C(C)C (centres undefined) | -0.277
CC(=O)c1ccc(N2C(=O)[C@@H]3C(C(=O)CCN4C(=O)c5ccccc5C4=O)=NN[C@@H]3C2=O)cc1 | 0.0874
O=C(Cc1ccc(-n2c(=O)[nH]c3ccsc3c2=O)cc1)N1CCN(c2ccc(Cl)cc2)CC1 | -0.435
CNc1ncc(C(=O)C(C)(C)C)s1 | 0.159
CN(C)C(/C=C/Nc1ccc(F)cc1)=C(C#N)C#N | -0.0377
COC(=O)COc1ccc(S(=O)(=O)Nc2ccc(NC(C)=O)cc2)cc1 | 0.0187
COc1ccnc(NCc2cccnc2)c1C#N | -0.18
COC(=O)N/N=C/c1cc(Cl)c(OCc2ccc(F)cc2)c(OC)c1 | -0.458
CN=C1S/C(=C\c2ccc(N3CCOCC3)cc2C)C(=O)N1C | -0.0829
Cc1csc(NC(=O)c2cc3c(s2)CCC3)n1 | -0.258
COc1ccccc1Cn1c(=O)c2ccccc2n2c(SCC(=O)N3CCCCC3)nnc12 | -0.38
O=C(c1cccnc1)N1CCN(Cc2cccc(Br)c2)CC1 | -0.0523
CCCc1cc(=O)[nH]c(SCC(=O)N(CC(C)C)C2CCS(=O)(=O)C2)n1 (centres undefined) | -0.0784
COc1cc2c(cc1NC(=O)CSc1ccc(Cl)cc1)oc1ccccc12 | -0.483
Cc1ncc(C[n+]2csc(CCOC(=O)CC34CC5CC(CC(C5)C3)C4)c2C)c(N)n1 | 0.357
